About 9,900 (2.8%) of roughly 350,000 compounds were called active. Inconclusive results, whose numbers are uncertain, are shown with a selection of clear calls. Calls follow the shape of the dose curve; as a rule, active = well fitted activation curve with a large enough effect; inconclusive = small, poorly fitted or top-dose-only effect; inactive = no such curve, though single readings can be large or run the other way. No potency is given beside an inconclusive call; the fits are too rough.
Experiment: A quantitative high throughput screen for small molecules that induce DNA re-replication in MCF 10a normal breast cells. Also: nearly all actives have a fitted effect of over 50% in size. As to activity, positive = re-replication: % of control where 0% means no effect.
Conditions: MCF 10A DNA re-replication, Hoechst nuclear intensity, 48 h; activity, positive = re-replication: at 46.1 µM (top of the series)
Potency is read from the fitted curve at half-maximal effect; tags tell the direction and shape of the fitted curve.

Row | Compound | Potency | activity, positive = re-replication
1 | O=C(O)Cc1sc(NCCc2ccccc2)nc1-c1ccc(F)cc1 | inconclusive [activator, single point] | 
2 | CCOc1ccc(C(=O)NC(=S)Nc2ccc(N3CCC(C)CC3)cc2)cc1[N+](=O)[O-] | inconclusive [activator, partial curve, poor fit] | 
3 | Cc1cnc2c(c1)C(=O)c1ccccc1-2 | inconclusive [activator, single point] | 
4 | CCc1ccc(-c2nc(CN3CCC(C(=O)N4CCN(c5ccccc5)CC4)CC3)c(C)o2)cc1 | inconclusive [activator, partial curve, poor fit] | 
5 | COc1ccc2c(c1)[C@H]1[C@H](CO2)[C@H](c2ccccc2)[C@]2(C)C(=O)Nc3ccccc3C(=O)N12 | active: 29.1 µM | 
6 | CC(=O)C1=C(C)NC(SCc2cccc3ccccc23)=C(C#N)C1c1ccco1 (stereo unspecified) | inconclusive [activator, partial curve, poor fit] | 
7 | COc1ccc(NS(=O)(=O)c2cc(NC(=O)CCNC(C)=O)ccc2N2CCCCC2)cc1 |  | inactive: -1.16%
8 | Cc1nccn1-c1cc(C(C)(C)C)nc2c(-c3ccccc3)cnn12 | inconclusive [activator, single point] | 
9 | O=[N+]([O-])c1cc2c(c3cccnc13)COCO2 | inconclusive [activator, single point] | 
10 | Cc1c(C(=O)OCC(=O)Nc2ccc(S(N)(=O)=O)cc2)oc2c1ccc1ccccc12 | inconclusive [activator, single point] | 
11 | CCCN1Cc2cc(OC)ccc2-c2ccccc2S1(=O)=O | inconclusive [activator, partial curve, poor fit] | 
12 | Clc1ccccc1Oc1cnc2ccccc2n1 | inconclusive [activator, partial curve, poor fit] | 
13 | CCOC(=O)Cc1c(C)nc2c(-c3cccc(Br)c3)cnn2c1C | inconclusive [activator, single point] | 
14 | CCCCOc1cccc(C(=O)Nc2ccc(NC(=O)c3cccs3)cc2)c1 | active: 7.31 µM | 
15 | Cc1cccc(C)c1OCC(=O)Nc1ccc(NC(=O)c2ccco2)cc1 | inconclusive [activator, single point] | 
16 | O=C(Nc1ccncc1)c1ccc(Cl)c(Cl)c1 |  | inactive: 6.18%
17 | Fc1ccc(NC(=S)Nc2ccc(F)c(Cl)c2)cc1Cl | inconclusive [activator, partial curve, poor fit] | 
18 | CCOC(=O)c1cc2c(=O)n3ccccc3nc2n(Cc2ccco2)c1=NC(=O)c1ccc(OC)cc1OC | inconclusive [activator, partial curve, poor fit] | 
19 | N#Cc1nc(-c2ccc(Cl)cc2)oc1NCCc1ccccn1 |  | inactive: -5.39%
20 | COC(CNC(=O)[C@H](CSCc1ccccc1)N1Cc2ccccc2C1=O)OC | inconclusive [activator, partial curve, poor fit] | 
21 | CCOC(=O)/C(C#N)=C/c1cc2ccc(C)cc2nc1Cl | inconclusive [activator, partial curve, poor fit] | 

Row | Compound | Potency | activity, positive = re-replication
22 | COc1ccc(C(=O)CSc2nnc(-c3cccs3)n2-c2ccccc2)cc1 | inconclusive [activator, partial curve, poor fit] | 
23 | Cc1ccc(NC(=O)C2CCCN(S(=O)(=O)c3c(C)noc3/C=C/N(C)C)C2)c(C)c1 (stereo unspecified) | inconclusive [activator, single point] | 
24 | O=C(C1CCCN(S(=O)(=O)c2cccs2)C1)N1CCC(N2CCCCC2)CC1 (stereo unspecified) | inconclusive [activator, partial curve, poor fit] | 
25 | COc1ccccc1NC(=O)c1ccc(Cl)c(S(=O)(=O)N2CCCCC2)c1 | inconclusive [activator, partial curve, poor fit] | 
26 | O=C(Cc1ccc(Cl)cc1)NNC(=O)c1cnccn1 | inconclusive [activator, partial curve] | 
27 | Cc1nc2ccc(NC(=O)CCS(=O)(=O)c3ccc(Cl)cc3)cc2s1 |  | inactive: 9.6%
28 | O=C1c2ccc3c4c(ccc(c24)C(=O)N1c1ccc2ccccc2c1)CC3 | inconclusive [activator, partial curve, poor fit] | 
29 | N#CC1=C(N)Oc2n[nH]c(-c3ccccn3)c2C1c1c(F)cccc1Cl (stereo unspecified) |  | inactive: 10.7%
30 | COc1cc(O)c2c(=O)c(-c3ccc(O[C@@H]4O[C@H](CO)[C@@H](O)[C@H](O)[C@H]4O)cc3)coc2c1 |  | inactive: -7.65%
31 | COc1cccc(-n2nnnc2SCC(=O)Nc2nc3c(s2)CCCC3)c1 | inconclusive [activator, partial curve, poor fit] | 
32 | Cc1cc(OCc2cc(C(=O)N(C)C3CCOC3)no2)cc(C)c1Cl (stereo unspecified) | active: 2.31 µM | 
33 | CCCNS(=O)(=O)c1cccc(C(=O)OCc2cc(=O)oc3cc(OC)ccc23)c1 | active: 7.31 µM | 
34 | O=C(NC1CCCCCC1)C(=S)NCc1ccccc1 | inconclusive [activator, partial curve, poor fit] | 
35 | CCOC(=O)c1c(NC(=O)CSc2nnc3c(n2)[nH]c2ccccc23)sc2c1CCN(C)C2 | inconclusive [activator, single point] | 
36 | O=C(Nc1ccc(S(=O)(=O)N2CCCC2)cc1)c1cccs1 |  | inactive: -4.11%
37 | Cc1ccc(OCc2cc(C(=O)N3CCN(C4CCCC4)CC3)no2)cc1C | inconclusive [activator, single point] | 
38 | CCc1ccc(NC(=O)CSc2nnc(-c3n[nH]c4ccccc34)n2-c2ccccc2)cc1 | inconclusive [activator, single point] | 
39 | CCCCOC(=O)c1ccc(NC(=O)c2ccccc2OC)cc1 | inconclusive [activator, single point] | 
40 | CC(C)(C)NC(=O)c1ccc2c(c1)N(CC(=O)N1CCCCC1)C(=O)C(C)(C)O2 |  | inactive: 0.107%
41 | Cc1cc(OCC(=O)Nc2ccc3oc(-c4ccncc4)nc3c2)ccc1Cl |  | inactive: 0.357%

Source: PubChem BioAssay AID624296 (National Center for Advancing Translational Sciences (NCATS), 2012)
